# Measured values reported in PubChem BioAssay AID624417 (National Center for Advancing Translational Sciences (NCATS), 2012).
# Among all 410,000 compounds or so, about 6,400 (1.6%) were called active. The inconclusive results got no clear call from the source; some entries with a clear call stand among them for comparison. The call rests on the fitted dose curve; in most records, active means well fitted inhibition curve with a large enough effect; inconclusive means small, poorly fitted or top-dose-only effect; inactive means no such curve, though single readings can be large or run the other way. No potency is given beside an inconclusive call; the fits are too rough.
# Target: Glucagon-like peptide 1 receptor (Homo sapiens) (UniProt P43220)
# Test: qHTS of GLP-1 Receptor Inverse Agonists (Inhibition Mode); further: nearly all actives have a fitted effect of over 55% in size
# Settings: HEK293 GLP-1R CRE-luciferase, luminescence, 24 h, GLP-1R form is constitutively active; series mostly up to 38.3 µM
# In short: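 Cells are plated, allowed 12 hours at 37 deg C, then treated with compounds for 24 hr before luciferase detection reagent is added and luminescence is read after 12 min at room temperature. The HEK293 line carries constitutively active GLP-1R with a cAMP-responsive reporter.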
# Potency means the concentration at half of the fitted maximal effect; tags describe the fitted curve by direction and shape.
# Chain of UniProt P43220 (P43220 whole entry, looked up): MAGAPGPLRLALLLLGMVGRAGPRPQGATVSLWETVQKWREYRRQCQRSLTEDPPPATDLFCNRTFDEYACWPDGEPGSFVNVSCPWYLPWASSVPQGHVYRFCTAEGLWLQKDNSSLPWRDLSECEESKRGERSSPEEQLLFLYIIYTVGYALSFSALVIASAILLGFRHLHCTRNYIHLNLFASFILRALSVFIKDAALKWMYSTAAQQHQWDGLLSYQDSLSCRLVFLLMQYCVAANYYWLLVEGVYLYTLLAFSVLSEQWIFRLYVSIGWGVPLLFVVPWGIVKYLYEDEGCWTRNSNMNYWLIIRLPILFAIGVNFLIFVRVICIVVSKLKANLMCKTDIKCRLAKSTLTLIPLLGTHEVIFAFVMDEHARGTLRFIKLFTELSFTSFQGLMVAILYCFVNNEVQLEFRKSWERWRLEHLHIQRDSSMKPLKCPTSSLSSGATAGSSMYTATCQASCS
row,SMILES,Potency
1,CC1=C(C(=O)OCCNC(=O)c2ccccc2O)C(c2ccccc2[N+](=O)[O-])C(C(=O)OCC2CCCO2)=C(C)N1 (configuration not stated),"inconclusive [inhibitor, single point]"
2,CCOC(=O)Cc1nnc2c(Nc3ccc(Cl)cc3)nc3nonc3n12,"inconclusive [inhibitor, partial curve, poor fit]"
3,CC1CCCN(S(=O)(=O)c2ccc(NC(=O)CN3C(=O)NC(C)(c4ccccc4)C3=O)cc2)C1 (configuration not stated),"inconclusive [inhibitor, partial curve, poor fit]"
4,CCOc1ccc(NC(=O)c2cccc3ccccc23)cc1,inactive
5,CCCN1C(=S)c2ccccc2C1c1ccccc1 (configuration not stated),"inconclusive [inhibitor, single point]"
6,CCOC(=O)C1(C)CCCN(C(=O)c2ccc(-c3ccccc3)cc2)C1 (configuration not stated),inactive
7,Cc1ccc2ncnc(Nc3ccc(C)c(C)c3)c2c1,"inconclusive [inhibitor, single point]"
8,O=C(Nc1ccc(-c2nnc(-c3ccco3)o2)cc1)C(c1ccccc1)c1ccccc1,"inconclusive [inhibitor, full curve, poor fit]"
9,Cc1cccc(NS(=O)(=O)c2ccc(C(=O)NCC(c3ccco3)N(C)C)cc2)c1C (configuration not stated),"inconclusive [inhibitor, single point]"
10,Cc1ccc(S(=O)(=O)Nc2cccc(Cl)c2)cc1NC(=O)C1CC1,"inconclusive [inhibitor, partial curve, poor fit]"
11,Cc1csc2nc(-c3cccc(NC(=O)C(C)C)c3)cn12,inactive
12,CC(C)[C@H](N)C(=O)N[C@H]1CCC2C3CC=C4C[C@@H](O)CC[C@]4(C)C3CC[C@@]21C (some centres not stated),"inconclusive [inhibitor, partial curve, poor fit]"
13,O=S(=O)(c1ccc(Cl)cc1)N1CN(CC2CCCO2)c2nc3ccccc3nc21 (configuration not stated),"inconclusive [inhibitor, partial curve]"
14,COc1ccc(NC(=O)Nc2cc(C)ccc2OC)cc1,"inconclusive [inhibitor, single point]"
15,O=C(CN1C2CCCC1CC(NC(=O)C1CCCCC1)C2)Nc1ccccc1 (configuration not stated),"inconclusive [inhibitor, partial curve]"
16,Cc1ccc2oc(C(=O)NCCC3CCCCO3)c(C)c2c1 (configuration not stated),"inconclusive [inhibitor, single point]"
17,COc1ccccc1N1CCN(CCN2C(=O)CC(=C3c4ccccc4-c4ccccc43)C2=O)CC1,inactive
18,NNC(=O)c1cnn(Cc2ccccc2)c1N,"inconclusive [inhibitor, partial curve]"
19,O=S1(=O)CCC(N=Cc2ccc(-c3ccc(Cl)cc3)o2)C1 (configuration not stated),"inconclusive [inhibitor, partial curve, poor fit]"
20,COC(=O)[C@@]1(Cc2ccc(F)cc2)[C@H]2c3cc(C(=O)N4CCCC4)n(Cc4ccccc4)c3C[C@H]2CN1C(=O)c1ccccc1,"inconclusive [inhibitor, single point]"
21,CC1(C)Cc2c(cnn2-c2ccccc2)C(=O)/C1=N\NC(=O)c1ccccc1N,inactive

row,SMILES,Potency
1,CC(OC(=O)c1snc(C(=O)NC2CCCCC2)c1N)C(=O)NC(C)(C)C (configuration not stated),"inconclusive [inhibitor, partial curve, poor fit]"
2,Cc1nc(SCC(=O)OCc2ccccc2)c(C#N)c(-c2ccccc2)c1C(=O)Nc1ccccc1,"inconclusive [inhibitor, partial curve, poor fit]"
3,O=[N+]([O-])c1ccc(OCCCCCN2CCOCC2)cc1,inactive
4,Cc1cc(C(=O)NNc2ccccc2F)no1,"inconclusive [inhibitor, full curve, poor fit]"
5,CC1CCCCN1C(=O)CSCC(=O)Nc1nc(-c2cccs2)cs1 (configuration not stated),"inconclusive [inhibitor, single point]"
6,CSc1cccc(CN2CCCC(CO)(Cc3cccc(Cl)c3)C2)c1 (configuration not stated),"inconclusive [inhibitor, partial curve, poor fit]"
7,CC1(C(=O)NCCC(F)(F)F)Cc2c(-c3cccc(C(F)(F)F)c3)ccnc2O1 (configuration not stated),"inconclusive [inhibitor, partial curve]"
8,CCOc1ccc(S(=O)(=O)NCCC(=O)N2CCC(Cc3ccccc3)CC2)cc1,"inconclusive [inhibitor, single point]"
9,CCc1ccc(NC(=S)N(CCN2CCOCC2)Cc2ccccc2F)cc1,"inconclusive [inhibitor, partial curve, poor fit]"
10,COC(=O)[C@@]12C[C@@H](CC(=O)NCc3ccc(OC)c(OC)c3)C(=O)N(Cc3cccc4ccccc34)C1=CCC(C)(C)C2,"inconclusive [inhibitor, single point]"
11,CCCOc1ccc(OCCSc2ncccn2)cc1,"inconclusive [inhibitor, single point]"
12,Cc1noc(C)c1COC(=O)CCOc1ccccc1,inactive
13,Cc1nc2cccnc2n1-c1cccc(C(=O)N2CCN(c3ccc(Cl)cc3)CC2)c1,inactive
14,CCCc1c(C(=O)NNc2ccccc2OC)cnn1-c1ccccc1,"inconclusive [inhibitor, partial curve, poor fit]"
15,Cn1cncc1C#Cc1c(-c2ccc(S(C)(=O)=O)cc2)sc2ccccc12,"inconclusive [inhibitor, partial curve, poor fit]"
16,Cc1cc(S(=O)(=O)N(Cc2cccs2)Cc2ccccc2F)ccc1-n1cnnn1,"inconclusive [inhibitor, full curve, poor fit]"
17,Cc1ccc(C(=O)NCC2CCCN2S(=O)(=O)c2ccc(C)cc2)cc1 (configuration not stated),"inconclusive [inhibitor, single point]"
18,S=C(Nc1cccnc1)NC1CCCC1,inactive
19,Cc1ccc2c(c1)/C(=C/c1ccccc1C)C(=O)N2,"inconclusive [inhibitor, partial curve, poor fit]"
20,CCc1cccc(NC(=O)Cc2cn(C)c3ccccc23)c1,"inconclusive [inhibitor, full curve]"
21,COc1ccc(S(=O)(=O)N2CCc3ccccc32)cc1C(=O)NCc1ccco1,inactive

row,SMILES,Potency
1,COc1ccc(C2COc3cc(O)ccc3C2)c(OC)c1O (configuration not stated),"inconclusive [inhibitor, partial curve, poor fit]"
2,CN1CCN(c2nc(-c3ccc(Cl)cc3Cl)nc3ccccc23)CC1,"inconclusive [inhibitor, partial curve, poor fit]"
3,Cc1ccc(C2(c3ccccc3)NC(=O)N(CC(=O)NC3CCCCC3)C2=O)cc1C (configuration not stated),"inconclusive [inhibitor, partial curve, poor fit]"
4,CC1Cc2ccccc2N1C(=O)COC(=O)c1cccc(Br)c1 (configuration not stated),"inconclusive [inhibitor, single point]"
5,CC(=O)OC1CCC2(C)C(CCC3C4CC=C(C(C)=O)C4(C)OC(=O)CC32)C1 (configuration not stated),"inconclusive [inhibitor, partial curve, poor fit]"
6,COC(=O)C1Cc2c([nH]c3ccccc23)CN1 (configuration not stated),inactive
7,CC[n+]1c(/C=C/c2ccc(N(C)C)cc2)ccc2ccccc21,"inconclusive [inhibitor, full curve, poor fit]"
8,CCOc1ccccc1N1CCN(Cc2cc3c(cc2[N+](=O)[O-])OCO3)CC1,"inconclusive [inhibitor, partial curve, poor fit]"
9,COc1ccc(C)c2sc(N(CCN(C)C)C(=O)c3ccc4ccccc4c3)nc12,"inconclusive [inhibitor, single point]"
10,Cc1ccc2onc(CNC(=O)N3CCN(c4cccc(C)c4C)CC3)c2c1,"inconclusive [inhibitor, single point]"
11,Cc1ccc(OCCCC(=O)Nc2ccccc2C(F)(F)F)cc1,"inconclusive [inhibitor, partial curve, poor fit]"
12,COCc1cccc(-c2csc(C(C)(O)c3cccc(OC)c3)n2)c1 (configuration not stated),"inconclusive [inhibitor, single point]"
13,CC1(c2ccc(Cl)c(Cl)c2)NC(=S)N2C1NC(=S)N2c1ccccc1 (configuration not stated),"inconclusive [inhibitor, partial curve, poor fit]"
14,Cc1ccc(S(=O)(=O)c2nc(-c3ccccc3)oc2NCc2cccnc2)cc1,"inconclusive [inhibitor, single point]"
15,O=C1CSC2(C(=O)N(Cc3ccccc3F)c3ccccc32)N1c1ccc(F)cc1 (configuration not stated),"inconclusive [inhibitor, single point]"
16,CCN1C(=O)C(CC(=O)Nc2ccc(Br)cc2)N(CCCc2ccccc2)C1=S (configuration not stated),active: 2 µM
17,c1ccc2c(c1)OCCOCCOCCOCCOCCOc1ccccc1OCCOCCOCCO2,"inconclusive [inhibitor, partial curve, poor fit]"
18,O=C(c1cn(Cc2ccccc2)nc1-c1ccc(Cl)cc1)N1CCN(c2ccccn2)CC1,"inconclusive [inhibitor, partial curve, poor fit]"
19,COc1ccc(N2C(=O)C3[C@@H](C2=O)C2(Cl)C(Cl)=C(Cl)C3(Cl)C2(OC)OC)cc1 (some centres not stated),inactive
20,Cc1cccc(-c2ccc(NC(=O)C3CCN(CC4CC4)CC3)cc2)c1,"inconclusive [inhibitor, full curve]"
